Measured values reported in the supplement of paper PMC11876631.
± gives the standard deviation of the averaged measurements. Laboratory Escherichia coli strains with one amino-acid change in an essential protein, pooled on minimal glucose agar with carbenicillin or gentamicin at twice the control MIC (plus kanamycin and chloramphenicol for the plasmids), 48 h. Fold change of barcode share against drug-free plates; higher = less susceptible. Active = above 20 in both replicates (the paper's putatively resistant). '<' = one read or none on drug, '>' = one read or none on a drug-free plate. Shares are relative, so most strains fall below 1 when a few take over. Listed are strains with at least 15 reads on both drug-free plates, and hits; most hits rest on fewer reference reads. Replicate rank correlation about 0.5. Edits are read from barcodes.

Molecular target: Escherichia coli (laboratory strain)
Assay: barcode share on antibiotic plates over drug-free plates; higher = less susceptible
Experimental: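 A pool of E. coli strains, each edited to carry one amino-acid change in an essential protein, was grown for 48 h on minimal glucose agar with or without antibiotic; strain barcodes were sequenced; mean of two replicates.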

[1] = antibiotic: carbenicillin, 2× MIC (3.1 µg/mL)
[2] = antibiotic: gentamicin, 2× MIC (MIC 0.45 µg/mL)

B1: dnaC M142A (protein)
chain: MKNVGDLMQRLQKMMPAHIKPAFKTGEELLAWQKEQGAIRSAALERENRAMKMQRTFNRSGIRPLHQNCSFENYRVECEGQMNALSKARQYVEEFDGNIASFIFSGKPGTGKNHLAAAICNELLLRGKSVLIITVADIMSAAKDTFRNSGTSEEQLLNDLSNVDLLVIDEIGVQTESKYEKVIINQIVDRRSSSKRPTGMLTNSNMEEMTKLLGERVMDRMRLGNSLWVIFNWDSYRSRVTGKEY
- fold change of barcode share [1]: 0.268 ± 0.012
- fold change of barcode share [2]: 0.0191 ± 0.012

B2: dnaC V135W (protein)
chain: MKNVGDLMQRLQKMMPAHIKPAFKTGEELLAWQKEQGAIRSAALERENRAMKMQRTFNRSGIRPLHQNCSFENYRVECEGQMNALSKARQYVEEFDGNIASFIFSGKPGTGKNHLAAAICNELLLRGKSVLIITWADIMSAMKDTFRNSGTSEEQLLNDLSNVDLLVIDEIGVQTESKYEKVIINQIVDRRSSSKRPTGMLTNSNMEEMTKLLGERVMDRMRLGNSLWVIFNWDSYRSRVTGKEY
- fold change of barcode share [1]: 0.354 ± 0.048
- fold change of barcode share [2]: < 0.00614

B3: dnaC V135Q (protein)
chain: MKNVGDLMQRLQKMMPAHIKPAFKTGEELLAWQKEQGAIRSAALERENRAMKMQRTFNRSGIRPLHQNCSFENYRVECEGQMNALSKARQYVEEFDGNIASFIFSGKPGTGKNHLAAAICNELLLRGKSVLIITQADIMSAMKDTFRNSGTSEEQLLNDLSNVDLLVIDEIGVQTESKYEKVIINQIVDRRSSSKRPTGMLTNSNMEEMTKLLGERVMDRMRLGNSLWVIFNWDSYRSRVTGKEY
- fold change of barcode share [1]: 0.256 ± 0.15
- fold change of barcode share [2]: < 0.00539

B4: dnaC V135D (protein)
chain: MKNVGDLMQRLQKMMPAHIKPAFKTGEELLAWQKEQGAIRSAALERENRAMKMQRTFNRSGIRPLHQNCSFENYRVECEGQMNALSKARQYVEEFDGNIASFIFSGKPGTGKNHLAAAICNELLLRGKSVLIITDADIMSAMKDTFRNSGTSEEQLLNDLSNVDLLVIDEIGVQTESKYEKVIINQIVDRRSSSKRPTGMLTNSNMEEMTKLLGERVMDRMRLGNSLWVIFNWDSYRSRVTGKEY
- fold change of barcode share [1]: 0.136 ± 0.042
- fold change of barcode share [2]: < 0.0119

B5: dnaC L7W (protein)
chain: MKNVGDWMQRLQKMMPAHIKPAFKTGEELLAWQKEQGAIRSAALERENRAMKMQRTFNRSGIRPLHQNCSFENYRVECEGQMNALSKARQYVEEFDGNIASFIFSGKPGTGKNHLAAAICNELLLRGKSVLIITVADIMSAMKDTFRNSGTSEEQLLNDLSNVDLLVIDEIGVQTESKYEKVIINQIVDRRSSSKRPTGMLTNSNMEEMTKLLGERVMDRMRLGNSLWVIFNWDSYRSRVTGKEY
- fold change of barcode share [1]: 0.595 ± 0.29
- fold change of barcode share [2]: < 0.0137

B6: dnaC L7Q (protein)
chain: MKNVGDQMQRLQKMMPAHIKPAFKTGEELLAWQKEQGAIRSAALERENRAMKMQRTFNRSGIRPLHQNCSFENYRVECEGQMNALSKARQYVEEFDGNIASFIFSGKPGTGKNHLAAAICNELLLRGKSVLIITVADIMSAMKDTFRNSGTSEEQLLNDLSNVDLLVIDEIGVQTESKYEKVIINQIVDRRSSSKRPTGMLTNSNMEEMTKLLGERVMDRMRLGNSLWVIFNWDSYRSRVTGKEY
- fold change of barcode share [1]: 0.254 ± 0.11
- fold change of barcode share [2]: < 0.00732

B7: dnaC L7D (protein)
chain: MKNVGDDMQRLQKMMPAHIKPAFKTGEELLAWQKEQGAIRSAALERENRAMKMQRTFNRSGIRPLHQNCSFENYRVECEGQMNALSKARQYVEEFDGNIASFIFSGKPGTGKNHLAAAICNELLLRGKSVLIITVADIMSAMKDTFRNSGTSEEQLLNDLSNVDLLVIDEIGVQTESKYEKVIINQIVDRRSSSKRPTGMLTNSNMEEMTKLLGERVMDRMRLGNSLWVIFNWDSYRSRVTGKEY
- fold change of barcode share [1]: 0.275 ± 0.075

B8: dnaC L7P (protein)
chain: MKNVGDPMQRLQKMMPAHIKPAFKTGEELLAWQKEQGAIRSAALERENRAMKMQRTFNRSGIRPLHQNCSFENYRVECEGQMNALSKARQYVEEFDGNIASFIFSGKPGTGKNHLAAAICNELLLRGKSVLIITVADIMSAMKDTFRNSGTSEEQLLNDLSNVDLLVIDEIGVQTESKYEKVIINQIVDRRSSSKRPTGMLTNSNMEEMTKLLGERVMDRMRLGNSLWVIFNWDSYRSRVTGKEY
- fold change of barcode share [1]: 0.209 ± 0.082
- fold change of barcode share [2]: < 0.0156

B9: adk L35Q (protein)
chain: MRIILLGAPGAGKGTQAQFIMEKYGIPQISTGDMQRAAVKSGSELGKQAKDIMDAGKLVTDELVIALVKERIAQEDCRNGFLLDGFPRTIPQADAMKEAGINVDYVLEFDVPDELIVDRIVGRRVHAPSGRVYHVKFNPPKVEGKDDVTGEELTTRKDDQEETVRKRLVEYHQMTAPLIGYYSKEAEAGNTKYAKVDGTKPVAEVRADLEKILG
- fold change of barcode share [1]: 0.493 ± 0.28
- fold change of barcode share [2]: 0.0105 ± 0.00098

B10: adk L35P (protein)
chain: MRIILLGAPGAGKGTQAQFIMEKYGIPQISTGDMPRAAVKSGSELGKQAKDIMDAGKLVTDELVIALVKERIAQEDCRNGFLLDGFPRTIPQADAMKEAGINVDYVLEFDVPDELIVDRIVGRRVHAPSGRVYHVKFNPPKVEGKDDVTGEELTTRKDDQEETVRKRLVEYHQMTAPLIGYYSKEAEAGNTKYAKVDGTKPVAEVRADLEKILG
- fold change of barcode share [1]: 0.304 ± 0.19
- fold change of barcode share [2]: < 0.00582

B11: adk F109A (protein)
chain: MRIILLGAPGAGKGTQAQFIMEKYGIPQISTGDMLRAAVKSGSELGKQAKDIMDAGKLVTDELVIALVKERIAQEDCRNGFLLDGFPRTIPQADAMKEAGINVDYVLEADVPDELIVDRIVGRRVHAPSGRVYHVKFNPPKVEGKDDVTGEELTTRKDDQEETVRKRLVEYHQMTAPLIGYYSKEAEAGNTKYAKVDGTKPVAEVRADLEKILG
- fold change of barcode share [1]: 0.333 ± 0.063
- fold change of barcode share [2]: 0.00538 ± 0.006

B12: adk F109W (protein)
chain: MRIILLGAPGAGKGTQAQFIMEKYGIPQISTGDMLRAAVKSGSELGKQAKDIMDAGKLVTDELVIALVKERIAQEDCRNGFLLDGFPRTIPQADAMKEAGINVDYVLEWDVPDELIVDRIVGRRVHAPSGRVYHVKFNPPKVEGKDDVTGEELTTRKDDQEETVRKRLVEYHQMTAPLIGYYSKEAEAGNTKYAKVDGTKPVAEVRADLEKILG
- fold change of barcode share [1]: 3.77 ± 0.87
- fold change of barcode share [2]: 0.0656 ± 0.072

B13: dxr F135A (protein)
chain: MKQLTILGSTGSIGCSTLDVVRHNPEHFRVVALVAGKNVTRMVEQCLEFSPRYAVMDDEASAKLLKTMLQQQGSRTEVLSGQQAACDMAALEDVDQVMAAIVGAAGLLPTLAAIRAGKTILLANKESLVTCGRLAMDAVKQSKAQLLPVDSEHNAIFQSLPQPIQHNLGYADLEQNGVVSILLTGSGGPFRETPLRDLATMTPDQACRHPNWSMGRKISVDSATMMNKGLEYIEARWLFNASASQMEVLIHPQSVIHSMVRYQDGSVLAQLGEPDMRTPIAHTMAWPNRVNSGVKPLDFCKLSALTFAAPDYDRYPCLKLAMEAFEQGQAATTALNAANEITVAAFLAQQIRFTDIAALNLSVLEKMDMREPQCVDDVLSVDANAREVARKEVMRLAS
- fold change of barcode share [1]: 0.44 ± 0.22
- fold change of barcode share [2]: < 0.00594

B14: dxr F135W (protein)
chain: MKQLTILGSTGSIGCSTLDVVRHNPEHFRVVALVAGKNVTRMVEQCLEFSPRYAVMDDEASAKLLKTMLQQQGSRTEVLSGQQAACDMAALEDVDQVMAAIVGAAGLLPTLAAIRAGKTILLANKESLVTCGRLWMDAVKQSKAQLLPVDSEHNAIFQSLPQPIQHNLGYADLEQNGVVSILLTGSGGPFRETPLRDLATMTPDQACRHPNWSMGRKISVDSATMMNKGLEYIEARWLFNASASQMEVLIHPQSVIHSMVRYQDGSVLAQLGEPDMRTPIAHTMAWPNRVNSGVKPLDFCKLSALTFAAPDYDRYPCLKLAMEAFEQGQAATTALNAANEITVAAFLAQQIRFTDIAALNLSVLEKMDMREPQCVDDVLSVDANAREVARKEVMRLAS
- fold change of barcode share [1]: 0.29 ± 0.12
- fold change of barcode share [2]: < 0.00698

B15: dxr F135Q (protein)
chain: MKQLTILGSTGSIGCSTLDVVRHNPEHFRVVALVAGKNVTRMVEQCLEFSPRYAVMDDEASAKLLKTMLQQQGSRTEVLSGQQAACDMAALEDVDQVMAAIVGAAGLLPTLAAIRAGKTILLANKESLVTCGRLQMDAVKQSKAQLLPVDSEHNAIFQSLPQPIQHNLGYADLEQNGVVSILLTGSGGPFRETPLRDLATMTPDQACRHPNWSMGRKISVDSATMMNKGLEYIEARWLFNASASQMEVLIHPQSVIHSMVRYQDGSVLAQLGEPDMRTPIAHTMAWPNRVNSGVKPLDFCKLSALTFAAPDYDRYPCLKLAMEAFEQGQAATTALNAANEITVAAFLAQQIRFTDIAALNLSVLEKMDMREPQCVDDVLSVDANAREVARKEVMRLAS
- fold change of barcode share [1]: 0.183 ± 0.005
- fold change of barcode share [2]: 0.122 ± 0.075

B16: adk F109Q (protein)
chain: MRIILLGAPGAGKGTQAQFIMEKYGIPQISTGDMLRAAVKSGSELGKQAKDIMDAGKLVTDELVIALVKERIAQEDCRNGFLLDGFPRTIPQADAMKEAGINVDYVLEQDVPDELIVDRIVGRRVHAPSGRVYHVKFNPPKVEGKDDVTGEELTTRKDDQEETVRKRLVEYHQMTAPLIGYYSKEAEAGNTKYAKVDGTKPVAEVRADLEKILG
- fold change of barcode share [1]: 0.245 ± 0.028
- fold change of barcode share [2]: 0.00457 ± 0.0042
